Where “and” joins values, the source holds several entries; their conditions need not be identical. Identical values can stand only once.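 Five concentrations, 48 hours, 96-well plates. GI50 marks 50% less growth. TGI is the concentration that stops growth completely.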

This experiment has as its system NCI-H322M lung. Put plainly: NCI-60 cell line screen, 48 h.
In turn, `COC(=O)/C=C\C(C#N)(C#N)N=Cc1cc(Br)cs1` came in with a TGI of 29.4 µM.
The same measure, in the same setting: next, `O=c1c2ncn(C3CCCO3)c2n(-c2ccccc2)c(=S)n1-c1ccccc1` (configuration not stated): over 100 µM; `CC(C)(C)[Si](C)(C)OC1C(=O)C[C@H]2CCCC[C@@H]12` (some centres not stated): over 100 µM.
Consider `Nc1c(C(=O)c2ccccc2)cnn1-c1ccc(F)cc1`, for which the GI50 was over 25 µM and the TGI is over 25 µM.
For `COc1ccc(-c2nsc3c2NC(=O)CC3c2cccc(OC)c2)cc1` (configuration not stated), the GI50 is 4.67 µM and the TGI was over 100 µM.
As to `C/C(=N\NC(=S)N1CCCCCC1)c1ccccn1`, the GI50 was under 0.0196 µM; the TGI was 5.03 µM and 8.64 µM.
Take `COc1cc(/C=C/C(=O)c2cccc(-n3cc(-c4ccc(Cl)cc4)[nH]c3=O)c2)ccc1O`: the GI50 was 5.52 µM and the TGI is 22.4 µM.
As to `S=c1[nH]c2c(Cl)c(Cl)c(Cl)c(Cl)c2[nH]1`, the TGI is 92.1 µM.
On the same count and under the same terms, next, `C=CCN(C(=O)CNC(=O)C(F)(F)F)c1cc(OCc2ccccc2)c2c(c1)c(C)cn2S(=O)(=O)c1ccccc1`: over 100 µM.
In the case of `COc1cccc2c1C(=O)c1c(O)c3c(c(O)c1C2=O)C[C@@](O)(/C(C)=N/NC(=O)c1ccc(Cl)cc1)C[C@@H]3OC1CC(N)C(O)C(C)O1` (some centres not stated), the GI50 is 0.706 µM and the TGI amounted to 3.75 µM.
For the compound `COc1ccccc1Nc1ncc(-c2ccccc2)o1`, the GI50 is over 25 µM and the TGI is over 25 µM.
`NCC(=O)Nc1ccc(S(=O)(=O)O)c2cc(S(=O)(=O)O)cc(S(=O)(=O)O)c12` yielded a TGI of over 100 µM.
`COC(=O)c1s/c(=N\C(=S)N(C)C)n(-c2ccc(Cl)cc2)c1C(=O)OC` had a TGI of over 100 µM.
Still for that read-out and setting: next, `COC12C(COC(N)=O)C3=C(C(=O)C(C)=C(N)C3=O)N1CC1C2N1C` (configuration not stated): 36.6 µM.
The same measure, in the same setting: next, `O=C1NC(N/N=C\C(O)C(O)C(O)C(O)CO)=N/C1=C/c1ccc(Cl)cc1` (configuration not stated): over 100 µM.
`O=C1c2cc3c(cc2-c2c1c1cc(Cl)c(Cl)cc1c(=O)n2C[C@H](O)CO)OCO3`: the GI50 was 0.028 µM and the TGI was 1.47 µM.
Take `CS/C(=C(\S)c1ccccc1)c1ccccc1`: the TGI is over 100 µM.
In turn, `O=C1NI(C#Cc2ccccc2)c2ccccc21` registered a TGI of over 100 µM.
The same measure, in the same setting: next, `Cc1ncc([N+](=O)[O-])n1CCNCCCCn1ccnc1[N+](=O)[O-]`: over 100 µM.
Consider `C#Cc1nc(Nc2cc(C)[nH]n2)c2ccccc2n1`, for which the GI50 is 0.86 µM and the TGI amounted to 3.24 µM.
As for `Cc1cc2cc3c(=O)[nH]c(=O)[nH]c3nc2cc1C`, the TGI was over 100 µM.
On the same count and under the same terms, the result for `Cn1c2ccccc2c2ncc3[nH]c4ccccc4c3c21` reads 44.4 µM; that for `C[Si](C)(C)/C(Br)=C\CCN1C(=O)CCC1=O`, over 100 µM.
With `COc1ccc2c(c1)c[n+](C)c1c3cc(OC)c(OC)cc3ccc21`, the GI50 is 15.8 µM and 7.08 µM; the TGI is 32.1 µM and 23 µM.
Turning to `COc1ccc(-c2nnc(N3CCN(C(=O)CN4CCN(c5ccccc5)CC4)CC3)nc2-c2ccc(OC)cc2)cc1`, the GI50 is over 100 µM and the TGI is over 100 µM.
With `CC(C)(C)OC/C=C(/CO)[C@@H]1C=C[C@H](O)C1`, the TGI is over 100 µM.
`CN1C(=O)C2CCCC(=O)N2c2cccnc21` (configuration not stated) displayed a TGI of over 100 µM.
Still for that read-out and setting: next, `CSc1ccsc1-c1sc(-c2cc(SC)c(-c3sc(-c4cc(SC)c(-c5sccc5SC)s4)cc3SC)s2)cc1SC`: over 100 µM.
`COc1cccc(C2c3cc4c(cc3OC(C)(N3CCCC3)C2C)OCO4)c1` (configuration not stated) showed a TGI of over 100 µM.
Same read-out and setting: the result for `COc1ccc(C[C@H]2COC(=O)[C@@H]2Cc2cccc(Br)c2)cc1OC` reads over 100 µM; that for `Cn1c2c(c3ccccc31)CCN1C(=O)CN(C(=O)C3CCCCC3)CC21` (configuration not stated), over 100 µM; that for `O=C(O)CCSC(CC1(c2ccc(Cl)cc2)NC(=O)CCS1)c1ccccc1` (configuration not stated), 33.2 µM.
Compound `COc1ccc(OC)c(/C=C(/C#N)c2ccccc2)c1` displayed a TGI of over 100 µM.
On the same count and under the same terms, the result for `COc1ccc(/C=C2\c3cc(OC)c(OC)cc3CCN2C(=O)c2ccccc2)cc1OC` reads over 100 µM; that for `CCOC(=O)/C(=C/c1ccc(N(C)C)cc1)N(CC)CC`, over 100 µM.
`COc1ccc(C(O)(CCC(C)C)C(CN2CCOCC2)c2ccc(Cl)cc2)cc1` (configuration not stated): the GI50 is 20.9 µM and the TGI was found to be 43.7 µM.
With `COCOC1C=CCCCC2=CC(C)=C(CC1)O2` (configuration not stated), the TGI was over 100 µM.
Consider `Cc1cc(N(CCCNc2ccnc3cc(Cl)ccc23)Cc2ccc3c(c2)OCO3)nc(N2CCOCC2)n1`, for which the GI50 is 0.322 µM and the TGI is 16.2 µM.
On the same counts, the results for `CCc1ccc(/C=C/c2ccc(O)c3ncccc23)[n+](C)c1` are 6.15 µM and over 100 µM.
For `O=C1CCC(=O)c2c1c(O)c1ccncc1c2O`, the TGI was 93 µM.
On to `CN(C)CCC(=O)C(=Cc1ccc(O)cc1)C(=O)CCN(C)C`, for which the GI50 was over 100 µM and the TGI is over 100 µM.
As to `COC1CCCCN1C(=O)c1ccccc1` (configuration not stated), the TGI was over 25.3 µM.
The same measure, in the same setting: the result for `Cc1c2cccc-2c(OCCO)cc2c3ccccc3n(C)c12` reads 24.6 µM.
Compound `CC(C)[Si]1(C(C)C)OCC2OC3(CO)C(Oc4nc(=O)ccn43)C2O[Si](C(C)C)(C(C)C)O1` (configuration not stated) had a TGI of 32.2 µM.
Turning to `CCC(=O)O[C@H]1CC[C@H]2[C@@H]3CCC4=C/C(=N/OC(=O)c5cccc6cc7ccccc7nc56)CC[C@]4(C)[C@H]3CC[C@]12C`, the TGI was over 100 µM.
Same read-out and setting: the result for `CC(=O)OCC1OC(n2c(C)cc(C)c(C#N)c2=S)C(OC(C)=O)C(OC(C)=O)C1OC(C)=O` (configuration not stated) reads over 100 µM.
The same measure, in the same setting: the result for `[N-]=[N+]=N/C1=C/CCCCC(=O)C1` reads over 100 µM; that for `CCCCC/C=C1\CCC(CN(C)C)C1=O` (configuration not stated), 45.3 µM.
In the case of `CC(C(=O)O)c1cccc(Oc2ccccc2)c1` (configuration not stated), the GI50 is over 100 µM and the TGI was over 100 µM.
For `COC(=O)c1cc2c(s1)-c1nccc3c1c(nc1ccccc13)C2=O`, the GI50 was over 100 µM and the TGI is over 100 µM.
As for `C[C@]12CCC(=O)C=C1CC[C@@H]1C2CC[C@]2(C)Nc3[nH]ncc3CC12` (some centres not stated), the TGI is over 100 µM.
As for `CCOC(=O)/C=C(/C(=O)OCC)n1cnc2c(=O)[nH]c(NC(C)=O)nc21`, the TGI is over 100 µM.
Compound `Cn1c2ccccc2c(=O)c2cccc(C(=O)NC(CS)C(=O)O)c21` (configuration not stated) yielded a TGI of over 100 µM.
On to `Clc1nc(Cl)nc(Nc2cccc3ccccc23)n1`, for which the GI50 is over 100 µM and the TGI is over 100 µM.
Consider `O=C(CNS(=O)(=O)Cc1ccccc1)NNc1ccccc1`, for which the TGI was over 100 µM.
On the same count and under the same terms, the result for `CNCCCn1c2ccccc2c2c3c(c(-c4ccsc4)cc21)C(=O)NC3=O` reads 2.25 µM.
Turning to `C=CCc1ccc(O)c(-c2ccc(O)c(CC=C)c2)c1`, the GI50 is 15 µM and the TGI turned out to be 31.1 µM.
Consider `C=C(C)C1CCC2(C)CC1c1c(c(C)cc3c1[nH]c1ccccc13)O2` (configuration not stated), for which the TGI was over 25 µM.
With `O=C(Nc1cc(C(F)(F)F)ccc1Cl)c1cccc(NC2=C(Cl)C(=O)N(Cc3ccccc3)C2=O)c1`, the GI50 was over 100 µM and the TGI is over 100 µM.
The compound `CCOC(=O)C1SC(=Nc2ccccc2)N=C1C` (configuration not stated) yielded a TGI of over 100 µM.
On the same count and under the same terms, the result for `Cn1cnnc1Sc1c([N+](=O)[O-])ncn1C` reads over 100 µM; that for `CN(C)CCSc1cc(-c2ccccc2)c2ccccc2n1`, 32.3 µM; that for `Cc1cc(/N=C/c2ccc(F)cc2)n(-c2ccccc2)n1`, over 100 µM.
On the same count and under the same terms, next, `CN(C)C/C=C/C(=O)Nc1cc2c(Nc3ccc(F)c(Cl)c3)ncnc2cc1O[C@H]1CCOC1`: 11.8 µM and 3.34 µM.
Regarding `COc1cc(/C=C\c2cc(OC)c(OC)c(OC)c2)cc(N/C=C\C(=O)c2cc(OC)c(OC)c(OC)c2)c1OC`, the GI50 was 7.71 µM and the TGI was over 100 µM.
On the same counts, the results for `BrCc1cccc(C[P+](c2ccccc2)(c2ccccc2)c2ccccc2)c1` are over 100 µM and over 100 µM.
Take `C(=C\c1ccc(-c2cn3cc(/C=C/C=N/NC4=NCCN4)ccc3n2)cc1)/C=N/NC1=NCCN1`: the TGI came out at 6.23 µM.
As for `Cn1c(=O)c(Oc2ccc(F)cc2)cc2cnc(NC3CCOCC3)nc21`, the GI50 was over 25 µM and the TGI was over 25 µM.
In turn, `NCCc1cc(O)c(O)cc1O` had a TGI of over 78.7 µM.
As to `COc1cc(/C=C/C(=O)Oc2ccc(NC(C)=O)cc2)ccc1C(=O)O/C=C/c1ccccc1`, the TGI is over 100 µM.
The compound `CC(=O)N(C)CCc1c[nH]c2ccccc12` displayed a TGI of over 100 µM.
As for `Cc1ccc(NC(=O)CCc2nnc(N)o2)cc1`, the TGI is over 100 µM.
On the same count and under the same terms, the result for `COc1ccc(C(C#N)NNC(=O)Cc2ccccc2)cc1OC` (configuration not stated) reads over 100 µM.
The compound `O=C(O)c1ccc(C(=O)O)c2c(C(=O)O)ccc(C(=O)O)c12` had a TGI of over 100 µM.
Take `CSc1nc(NC2OC(COC(C)=O)C(OC(C)=O)C(OC(C)=O)C2OC(C)=O)c(N=CC=Nc2c(NC3OC(COC(C)=O)C(OC(C)=O)C(OC(C)=O)C3OC(C)=O)nc(SC)n(C)c2=O)c(=O)n1C` (configuration not stated): the GI50 was over 50 µM and the TGI is over 100 µM.
`CC1(C)OC[C@@H]([C@H](O)C2C=CC(=O)S2)O1` (some centres not stated) displayed a TGI of over 100 µM.
Compound `C=CCN1CCC(O)(c2cc(C(=O)OCC)[nH]c2-c2cc(C)no2)C1` (configuration not stated) came in with a TGI of over 100 µM.
`COc1ccc(-c2cc3ccccc3oc2=O)cc1OC` came in with a TGI of over 100 µM.
As for `Cn1c(Nc2ccc(C(F)(F)F)cc2)nc2cc(Oc3ccnc(-c4ncc(C(F)(F)F)[nH]4)c3)ccc21`, the GI50 was 0.114 µM and the TGI stood at 15.7 µM.
The compound `O=P1(c2ccccc2)Nc2ccccc2SSc2ccccc2N1` yielded a TGI of 34 µM.
For `CN1CC[C@@H](c2c(O)cc(O)c3c(=O)cc(-c4ccc(C(F)(F)F)cc4Cl)oc23)[C@@H]1CO`, the GI50 is 15.6 µM and the TGI was determined as 60.4 µM.
As to `C[C@H]1C(=O)O[C@@H]2CCN3CC=C(COC(=O)[C@](C)(O)[C@@]1(C)O)[C@H]23`, the TGI was over 100 µM.
The same measure, in the same setting: next, `CN(C)CCNC(=O)c1cccc2c(Nc3ccc(S(=O)(=O)N=C(N)N)cc3)c3ccccc3nc12`: over 100 µM; `O=C(CC(C(=O)c1ccsc1)c1ccccc1)c1ccccc1` (configuration not stated): over 100 µM.
On the same count and under the same terms, next, `CN(C)C(=O)/C=C/c1c[nH]c(=O)[nH]c1=O`: over 500 µM; `N=C1C(=N)c2ccccc2-c2ccccc21.N=C1C(=N)c2ccccc2-c2ccccc21.N=C1C(=N)c2ccccc2-c2ccccc21.[Cl-].[Ru+2]`: 21.4 µM.
Consider `O=[N+]([O-])c1ccc(-c2cnc3ccccn23)cc1`, for which the TGI is over 100 µM.

(Values after PubChem BioAssay (NCI).)
